Test results as given in patent publication US20240131199A1, “PH RESPONSIVE CYANINE DYES AND CONJUGATES THEREOF” (BRACCO IMAGING S.P.A., priority 2020, published 2024).
For at least one compound, name, drawing or mass did not settle the structure.

Legend:
[1] = Optical characterization (absorbance, excitation and emission spectra, microplate reader); format: physicochemical; details: for Exc. Max. / Abs. Max. / Em. Max.: phosphate buffer; for Abs. Max. / Em. Max.: maximum of the active form
Description: All commercially available reagents used in the synthesis were obtained from Sigma Aldrich and TCI and they were used without further purification. c(RGDfK) was purchased from Apex Bio or Bachem. All the reactions were followed by HPLC (Agilent mod. 1100/1200) and HPLC-MS (Agilent mod. 1260, Quadrupole LC/MSD Mod. 6120) equipped with an absorption detector set at different wavelengths (Column: YMC-Triart Phenyl, 250×4.6 mm/S-5 μm/12 nm). Purifications were performed by flash chromatography on an automated purification system (CombiFlash® Rf+), using pre-packed silica C18 cartridges (Biotage® or Phenomenex) or by preparative HPLC on preparative YMC-Triart Phenyl column. Absorbance, excitation and emission values were assessed in a well plate reader to speed-up the measurements (SPARK).
Optical characterization was performed for each compound with Spark® multimode microplate reader, registering with specific 96-wells plate the absorbance, excitation and emission spectra of the fluorophore buffered in phosphate buffer at several pH, ranging from 3 to 8.
In particular, the absorbance, excitation and emission maxima of representative compounds of formula (I) and conjugates of formula (II) are shown in Table III.

[2] = Residual fluorescence at different pH relative to pH 3; format: physicochemical; details: unit assumed; for Em. at pH 5/Em at pH 3: fluorescence at pH 5 relative to maximum at pH 3; for Em. at pH 6/Em at pH 3: fluorescence at pH 6 relative to maximum at pH 3; for Em. at pH 7.5/Em at pH 3: fluorescence at pH 7.5 relative to maximum at pH 3
Description: The ratio of the fluorescence at different pH (5, 6 and 7.5) with respect to the maximum fluorescence collected at pH 3 (highly acidic) was calculated for several representative compounds of the invention and the results are reported in the following Table V. The results were also compared to the values calculated for the non-alkylated Reference Compound A.

Row | Compound | Exc. Max. [1] [nm] | Abs. Max. [1] [nm] | Em. Max. [1] [nm] | Em. at pH 5/Em at pH 3 [2] [%] | Em. at pH 6/Em at pH 3 [2] [%] | Em. at pH 7.5/Em at pH 3 [2] [%] | maximum absorbance at neutral pH ([1]; neutral pH) [nm]
1 | CC[N+]1=C(/C=C/C2=C(Cl)C(=C/C=C3/Nc4ccc(C(=O)NCC(O)C(O)C(O)C(O)CO)cc4C3(C)C)/CCC2)C(C)(C)c2cc(S(=O)(=O)O)ccc21 (centres unmarked) [Compound 2] | 780 | 783 | 803 | – | – | – | –
2 | CC1(C)C(/C=C/C2=C(c3ccc(C(=O)NCCS(=O)(=O)O)cc3)C(=C/C=C3/Nc4ccc(S(=O)(=O)O)cc4C3(C)C)/CCC2)=[N+](CCCCCC(=O)O)c2ccc(S(=O)(=O)[O-])cc21 [Compound 4] | 758 | 763 | 788 | 108 | 80 | 19 | –
3 | CC1(C)C(/C=C/C2=C(Cl)C(=C/C=C3/Nc4ccc(S(=O)(=O)O)cc4C3(C)C)/CCC2)=[N+](CCCCCC(=O)O)c2ccc(S(=O)(=O)[O-])cc21 [Compound 5] | 780 | 780 | 804 | 89 | 55 | 5 | 510
4 | CC1(C)C(/C=C/C2=C(Cl)C(=C/C=C3/Nc4ccc(S(=O)(=O)[O-])cc4C3(C)C)/CCC2)=[N+](CCCCCC(=O)O)c2ccc(C(=O)NCC(O)C(O)C(O)C(O)CO)cc21 (centres unmarked) [Compound 6] | 784 | 784 | 805 | – | – | – | –
5 | CC1(C)C(/C=C/C2=C(Cl)C(=C/C=C3/N(CCCCCC(=O)O)c4ccc(C(=O)NCC(O)C(O)C(O)C(O)CO)cc4C3(C)C)/CCC2)=Nc2ccc(C(=O)NCC(O)C(O)C(O)C(O)CO)cc21 (centres unmarked) [Compound 7] | 786 | 789 | 808 | – | – | – | –
6 | CC1(C)C(/C=C/C(Cl)=C/C=C2/N(CCCCCC(=O)O)c3ccc4c(S(=O)(=O)O)cc(S(=O)(=O)O)cc4c3C2(C)C)=Nc2ccc3c(S(=O)(=O)O)cc(S(=O)(=O)O)cc3c21 [Compound 9] | – | 670 | – | – | – | – | –
7 | CC1(C)C(/C=C/C2=C(Cl)C(=C/C=C3/Nc4ccc(S(=O)(=O)O)cc4C3(C)C)/CCC2)=[N+](CCCCCC(=O)NCCCCC2NC(=O)[C@@H](Cc3ccccc3)NC(=O)[C@H](CC(=O)O)NC(=O)CNC(=O)[C@H](CCCNC(=N)N)NC2=O)c2ccc(S(=O)(=O)[O-])cc21 (some centres unmarked) [Compound 10] | 780 | 784 | 804 | – | – | – | –
8 | CC1(C)C(/C=C/C2=C(Cl)C(=C/C=C3/Nc4ccc(S(=O)(=O)O)cc4C3(C)C)/CCC2)=[N+](CCCCCC(=O)NCCCCC2NC(=O)[C@@H](Cc3ccccc3)NC(=O)[C@H](CC(=O)O)NC(=O)CNC(=O)[C@H](CCCNC(=N)N)NC2=O)c2ccc(C(=O)NCC(O)C(O)C(O)C(O)CO)cc21 (some centres unmarked) [Compound 11] | 788 | 789 | 808 | – | – | – | –
